Measurements published in the RNAGym collection of RNA variant scans (doi:10.1073/pnas.2313332121).
This sample is rich in variants without activity.

B1: TPR 5TU (parent)
chain: GGAUCUUCUCGAUCUAACAAAAAAGACAAAUCUGCCACAAAGCUUGAGAGCAUCUUCGGAUGCAGAGGCGGCAGCCUUCGGUGGCGCGAUAGCGCCAACGUUCUCAACUAUGACACGCAAAACGCGUGCUCCGUUGAAUGGAGUUUAUCAUG

Variants of: B1
Test: polymerase ribozyme fitness, log enrichment relative to wild type (log ratio); higher = more active; in vitro selection for triplet polymerase activity
How it was run: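 Libraries of mutants in each subunit of a heterodimeric triplet polymerase ribozyme were generated by PCR and transcribed. In triplicate, each went through one in vitro selection round: annealing with biotinylated primer, partner subunit and triplets; frozen incubation at −7 °C; gel excision of extended constructs; streptavidin-bead capture; RT-PCR. Fitness, taken from Illumina sequencing of input and output libraries, is the logarithm of a genotype's enrichment over wild-type enrichment, averaged across replicates with inverse-variance weights. The logarithm is base 2, and genotypes needed ≥10 input reads and ≥1 read per output to be kept.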
With GGAUCUUCUCGAUCUAACAAAAAAGACAAUUCUGCCACAAAGCUUGAGAGCAUCUGCGGAUGCAGAGGCGACAGACUUCGGUGGCGCGAUAGCGCCAACGUUCUCAACUAUGACACGCAAAACGCGUGCUCCGUUGAAUGGAGUUUAUCAUG [A30U U56G G71A C75A] the “polymerase ribozyme fitness (log ratio)” value was at most -4.2.
In the case of GGAUCUUCUCGAUCUAACAAAAAAGACAAUUCUGCCACAAAGCUUGAGAGCAUCUUCGGAAGCAGAGGCGGCAGCCUUCGGUGGGGCGAUAGCGGCAACGUUCUCAACUAUGCCGCGCAAAACGCGUGCUCCGUUGAAUGGAGUUUAUCAUG [A30U U61A C85G C95G A113C A115G], the “polymerase ribozyme fitness (log ratio)” value is reported as at most -4.2.
For GGAUCUUCUCGAUCUAACAAAAAAGACAAAACUGCCACAACGCUUGAGCGCAUCUUCGAAUGCAGAGGCGGCAGCCUUCGGUGGCGCGAUAGCGCAAACGUUCUCAACUAUGACACGCAAAACGCGUGCUCCGUUGAAUGGAGUUUAUCAUG [U31A A41C A49C G59A C96A], the “polymerase ribozyme fitness (log ratio)” value was at most -4.2.
In the case of GGAUCUUCUCGAUCUAACAAAAAAGACAAUUCUGCCACAAAGCUUGAGAGCAUCUUCGGAUGCAGAGGCGGCAGCCUUCGGAGGAGCGAUAGCGCCAACGUUCACAACUAUGACACGCAAAACGCGUGCUCCGUUGAAUGGAGUUUAUCAUG [A30U U82A C85A U104A], the “polymerase ribozyme fitness (log ratio)” value is reported as at most -4.2.
In the case of GGAUCUUCUCGAUCUAACAAAAAAGACAAUUCUGCCACAAAGCUUGAGAGCAACUUCGGAUGCAGAGGCGGCAGCCUUCGGUGGCGCGAUAGCGCCAACGUUCUCAACUAUGACACGCAAAACGCGUGCUCCGUUGAAUGGAGUUUAUCAUG [A30U U53A], the “polymerase ribozyme fitness (log ratio)” value is reported as -3.18.
For GGAUCUUCUCGAUCUAACAAAAAAGACAAUUCUGCCACAAAGCUUGAGAGCAUCUUCGGAUGCAGAGGCGGCAGCCUUCGGUGGCGCGAUAGCGCCAACGUGCUCAACUAUGACACGCAAAACGCGUGCUCCGUUGAAUGGAUUUUAUCAUG [A30U U102G G143U], the “polymerase ribozyme fitness (log ratio)” value was at most -4.2.
For GGAUCUUCUCGAUCUAACAAAAAAGACAAUUCUGCCACAAAGCUUGAGAGCAUCGUAGGAUGCAGAGGCGGCAGCCUUCGGUGGCGCGAUAGUGCCAACGUUCUCAACUAUGACACGCAAAACGCGUGCUCCGUUGAAUGGAGUUUAUCAUG [A30U U55G C57A C93U], the “polymerase ribozyme fitness (log ratio)” value was -4.13.
With GGAUCUUCUCGAUCUAACAAAAAAGACAAUUCCGCCACAAAGCUUGAGAGCAUCUUCGGAUGCAGAGGCGGCAGCCUUCGGUGGCGCGAUAGCGCCAACGUUCUCAACUAUGACACGCAAAACGCGUGCUCCGUUGAGUGGAGUUUAUCAUG [A30U U33C A138G] the “polymerase ribozyme fitness (log ratio)” value was at most -4.2.
With GGAUCUUCUCGAUCUAACAAAAAAGACAAUUCUGCCACAAAGCUUGAGAGCAUCAUCGGAUGCAGAGGCGGCAGCCUUCGGUGGCGCGAUAGCGCCAACGUUCUGAACUAUGACACGCAAAACGCGUGCUCCGUUGAAUGGAGUUUAUCAUG [A30U U55A C105G] the “polymerase ribozyme fitness (log ratio)” value was at most -4.2.
In the case of GGAUCUUCUCGAUCUAACAAAAAAGACAAUUCUGCCACAAAGCUUGAGAGCAUCGUCGGAUGUAGAGGCGGCAGCCUUCGGUGGCGCGAUAGCGCCAACGUUCUCAACUUUGACACGCAAAACGCUUGCUCCGUUGAAUGGAGUUUAUCAUG [A30U U55G C63U A110U G126U], the “polymerase ribozyme fitness (log ratio)” value is reported as -4.07.
With GGAUCUUCUCGAUCUAACAAAAAAGACAAUUCUGCCACAAAGCUUGAGAGCAGCUUCGGAUGCAGAGGCGGCAGCCUUCGGUGGCGCGAUAGCGACAACGUUCUCAACUAUGACACGCAAAACGCGUGCUCCGUUGAAUGGAGUAUAUCAUU [A30U U53G C95A U145A G152U] the “polymerase ribozyme fitness (log ratio)” value was at most -4.2.
In the case of GGAUCUUCUCGAUCUAACAAAAAAGACAAUUCUGCCACAAAGCUUGAGAGCAUCUACGGAUGCGGAGGCGGCAGCUUUCGAUGGCGCGAUAGAGCCAACGUACUCAACUAUGACACGCAAAACGCGUGCUCCGUUCAAUGGAGUUUAUCAUG [A30U U56A A64G C76U G81A C93A U102A G136C], the “polymerase ribozyme fitness (log ratio)” value is reported as at most -4.2.
For GGAUCUUCUCGAUCUAACAAAAAAGACAAAACUGCCACAAAGCUUGAGAGCAUCUUCGGAUGCAGAGGCGGCCGCCUUCGGUGGCGUGAUAGCGCCAACGUUCUCAACUAUGACACGCAAAGCGCGUGCUCCGUUGAAUGGAUUUUAUCAUG [U31A A73C C87U A122G G143U], the “polymerase ribozyme fitness (log ratio)” value was at most -4.2.
For GGAUCUUCUCGAUCUAACAAAAAAGACAAUUCUGCCACAAAGCUAGAGACCAUCUUCGGAUGCAGAGGCGGCAGCCUUGGGUCGCGCGAUAGCGCCAACGUUCUCAACUAUGACACGCAAAACGCCUGCUCCGUUGAAUGGAGUUUAUCAUG [A30U U45A G50C C79G G83C G126C], the “polymerase ribozyme fitness (log ratio)” value was at most -4.2.
For GGAUCUUCUCGAUCUAACAAAAAAGACAAUUCUGCCACAAAGCUUGAGAGCAUCAUCGGAUGCAGAAGCGGCGGCCUUCGGUGGCGCGAUAGCGCUAACGUUCUCAACUAUGACACGCAAAACGCGUGCUCCGUUGAAUGGAGUUUAUCAUG [A30U U55A G67A A73G C96U], the “polymerase ribozyme fitness (log ratio)” value was at most -4.2.
In the case of GGAUCUUCUCGAUCUAACAAAAAAGACAAAACUGCCACAAAGCUUGAGAGCAUCUUCGGGUGCAGAGGCGGCAGCCUUCGGUGGCGCGAUUGCGCCAACGUUCUCAACUAUGACACGCAAAACGCGUGCUGCGUUGAAUGGAGUUUAUCAUG [U31A A60G A91U C131G], the “polymerase ribozyme fitness (log ratio)” value is reported as at most -4.2.
For GGAUCUUCUCGAUCUAACAAAAAAGACAAUUCUGCCACAAAGCUUGAGAGCAUCUACAGAUGCAGAGGCGGCAGCCUUCGGUGGCGCGAUAGCGCCAACGGUGUCAACUAUGACACGCAAAACGCGUGCGCAGUCGAAUGGAGUUUAUCAUG [A30U U56A G58A U101G C103G U130G C132A U135C], the “polymerase ribozyme fitness (log ratio)” value was at most -4.2.
With GGAUCUUCUCGAUCUAACAAAAAAGACAAAACUGCCACAACGCUUGAGAGCAUCUUCGGAUGCAGGGGCGGCAGCCUUCGGUGGCGCGAUAGCGCCAACGUUCUCAACUAUGACACGCAAAACGCGUGCUCCGUUGAAUGGAGUUUAUCAUG [U31A A41C A66G] the “polymerase ribozyme fitness (log ratio)” value was at most -4.2.
For GGAUCUUCUCGAUCUAACAAAAAAGACAAUUCUGCCACAAAGCUUGAGAGCAUCUUCGGAUGCAGAGGCGGCAGCCUUCGGUGGCGCGAUAGCUCCAACGUUCUCAACUAUGACACGCAAAACGCGUGCUCCGUUGAAUGGAGUUUAUCAUG [A30U G94U], the “polymerase ribozyme fitness (log ratio)” value was at most -4.2.
